# Whole data set: some 33,000 sequences, median “E-score (-0.5 to 0.5)” near -0.054, cut for the highest 2% near 0.35. The list shows a part of the results.
# Biological target: T1, Stb5 (UniProt P38699)
# T1 sequence: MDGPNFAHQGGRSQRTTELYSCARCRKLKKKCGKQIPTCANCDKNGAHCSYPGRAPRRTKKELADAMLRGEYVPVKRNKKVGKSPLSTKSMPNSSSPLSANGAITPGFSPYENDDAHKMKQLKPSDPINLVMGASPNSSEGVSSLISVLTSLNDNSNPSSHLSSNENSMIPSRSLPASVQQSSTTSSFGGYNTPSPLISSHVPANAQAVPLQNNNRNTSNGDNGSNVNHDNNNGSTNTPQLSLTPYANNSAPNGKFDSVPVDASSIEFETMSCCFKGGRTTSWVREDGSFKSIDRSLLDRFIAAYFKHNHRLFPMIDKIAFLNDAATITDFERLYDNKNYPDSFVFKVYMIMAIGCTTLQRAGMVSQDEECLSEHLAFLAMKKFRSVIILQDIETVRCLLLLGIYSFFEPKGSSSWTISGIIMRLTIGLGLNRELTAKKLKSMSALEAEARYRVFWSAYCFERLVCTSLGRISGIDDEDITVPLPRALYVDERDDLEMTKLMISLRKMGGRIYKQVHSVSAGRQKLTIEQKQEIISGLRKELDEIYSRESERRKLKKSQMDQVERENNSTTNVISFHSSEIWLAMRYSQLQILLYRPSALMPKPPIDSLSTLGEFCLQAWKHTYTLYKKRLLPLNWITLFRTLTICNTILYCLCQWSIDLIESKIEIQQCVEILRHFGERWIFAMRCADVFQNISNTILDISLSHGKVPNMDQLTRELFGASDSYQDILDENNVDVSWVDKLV
# Experiment: PBM E-score (8-mer binding enrichment) (E-score (-0.5 to 0.5)); higher = stronger / more preferred TF binding; most listed sequences are background and not binding sites
# Conditions: protein concentration: 200 nM; construct: GST-full length
# Outline: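 For each ungapped eight-base word taken together with its reverse complement, the Universal PBM Analysis Suite assigned an E-score. Binding data came from GST-tagged yeast transcription factors, applied at about 100-200 nM, on universal all-10-mer Agilent arrays made double-stranded by primer extension. Fluorescent anti-GST marked bound protein, and scans were normalised with masliner.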
row,Sequence,PBM E-score
1,CCGACAGC,0.341
2,AAATAAAC,0.0274
3,ATACGAAG,-0.0649
4,CTACTAGA,-0.131
5,CCCTTTAG,-0.33
6,CTAACCAG,-0.27
7,CAAATATG,-0.0473
8,AAGACGAA,-0.242
9,ATCTCTCC,0.216
10,TAATGCAA,-0.158
11,AAACAGGA,-0.253
12,GCCAACGC,-0.031
13,GATCAATC,-0.101
14,CCGTAGGA,0.188
15,CAGCGCTG,0.178
16,ATACAAAT,-0.0114
17,TAATAGCA,-0.0524
18,CGATGAAG,0.0432
19,ACCGATCT,0.249
20,ATCTTCCG,0.124
21,AAGCATCG,0.0161
22,AGACGAAT,-0.201
23,ACTGTTGG,-0.189
24,GCCCCCGA,0.23
25,ATTTCTTA,-0.00559

row,Sequence,PBM E-score
1,CCTTAACA,-0.13
2,AGGGGATA,0.0586
3,CCGCAATC,0.23
4,AGAGTCTC,-0.219
5,ATTTAGTG,-0.0234
6,AGGTGTAT,-0.117
7,ATGATATA,-0.00522
8,CTACTCCC,-0.0111
9,CGTAAACG,0.0153
10,CTTGGGAC,-0.0832
11,ATAGCACA,-0.124
12,ACGGTTAC,0.119
13,AAACATCT,-0.121
14,GGTATCCA,0.097
15,AGTAATCG,-0.031
16,GTTGGTCA,-0.0313
17,AACTAGCA,-0.134
18,ACATCCTG,-0.0724
19,AGATCTGC,-0.186
20,AGACTGCT,-0.376
21,GCGTTCCC,0.0867
22,GTCCTACA,0.0371
23,AGCATAAG,-0.131
24,ACTTGATC,-0.103
25,GGACGTTA,0.155

row,Sequence,PBM E-score
1,AATCTGTA,-0.0262
2,ATCACATC,-0.0156
3,AGACGTGC,-0.182
4,GCGTAAGA,0.101
5,AGCCTGTA,-0.168
6,AACGGAGG,0.191
7,GACTACCC,-0.143
8,AATAGGCG,0.0769
9,AAAATCCA,-0.203
10,AACTCTGT,0.0227
11,CGCCTACC,0.0885
12,ACCATCAC,-0.0661
13,GCGAACTA,-0.0254
14,AGCATTGC,-0.156
15,CGACCGGC,0.222
16,CGGCAAAG,0.103
17,GGGTACAA,0.129
18,ACGTTTCA,-0.119
19,CCCCTGGC,-0.0152
20,CGAGATGA,0.0238
21,CAGTGAAG,-0.0993
22,AACCTGGC,-0.247
23,ATCTTGGG,-0.145
24,GACTAATC,0.153
25,GTCCCAAC,-0.0408

row,Sequence,PBM E-score
1,GTAGAGTA,-0.208
2,GGTCACAA,0.0628
3,ACTAATTC,-0.0183
4,CAAGGTGC,0.0204
5,GATGCATC,-0.0763
6,AGCATTCA,-0.216
7,AAAGGCCC,0.274
8,ATCCATAA,0.0068
9,AGTGATTC,-0.00858
10,ACGGTAAT,0.342
11,ACATCAGA,-0.143
12,CCGTCAAG,0.215
13,CAACGGGG,0.297
14,ATCACCAT,0.00627
15,AACAATAA,0.0661
16,CATTTAAC,0.167
17,CTCGCCAC,-0.0248
18,CCCAAGGA,-0.0196
19,ATTCACCG,0.346
20,GTATCGAC,-0.0532
21,AACCATGT,-0.0973
22,GCAACACA,-0.114
23,ACCGAATG,0.165
24,AGTCTAAC,-0.0953
25,AAACGCCG,0.449

row,Sequence,PBM E-score
1,GAGAGGGC,-0.0955
2,ACCTCTGA,-0.0237
3,AGGCTCTC,-0.369
4,CCCTAGTC,-0.303
5,GAAGGCTC,-0.13
6,CTGACGCA,-0.0314
7,CCACCGTA,0.0843
8,CTAAGAAC,0.00444
9,TCTTCGAA,-0.237
10,CACATGAA,-0.263
11,ATAAGAAC,0.0159
12,CAGCACGG,0.0117
13,ACGAGTAG,0.00828
14,AACTTATA,0.0508
15,ATCAGCGG,0.293
16,AATTTGCC,0.098
17,CTTCGACC,-0.053
18,ATACCAAT,-0.00644
19,GATTAGCC,0.0483
20,CAATGCCG,0.334
21,AAATACGG,0.0747
22,TATTCTCA,-0.192
23,TACGTCAA,-0.188
24,CCTGAGCG,-0.0867
25,AACTAATG,-0.132

row,Sequence,PBM E-score
1,ATTCCTTA,-0.157
2,ACCATTAA,0.0254
3,AACCCAGA,-0.177
4,GCAGTGAA,-0.0884
5,AACGGTGT,0.425
6,CACACATA,-0.187
7,CAGTACTC,-0.23
8,CTGTGCAA,-0.269
9,CCGTGACC,0.13
10,CATAGTAC,0.161
11,GGTTCCGA,0.126
12,GAACCCTC,-0.0966
13,CGAACTAG,0.023
14,CGTCTATC,0.119
15,CAGTTTCA,-0.266
16,CTTGTAGA,-0.179
17,GTACCCAC,0.11
18,GTAACATA,0.131
19,CCACTATC,-0.0181
20,GTTTGCTA,-0.0139
21,AGGCACGC,-0.126
22,TTAACGAA,0.0168
23,GAACTTAA,0.0786
24,ATCATTGA,-0.167
25,CTTCCGCC,0.256

row,Sequence,PBM E-score
1,ATGAGAGC,-0.118
2,GTATGACA,0.00517
3,CTCAGATA,-0.115
4,AACTTCGA,-0.0324
5,AAGTATGT,-0.268
6,CTTATTGC,0.0342
7,CAGGCGCA,-0.259
8,AATAACAT,0.071
9,AGAACGTG,-0.164
10,CAACCTTG,-0.0186
11,CGGTGGGC,0.19
12,AGCAGTGC,-0.207
13,TAGGCGGA,0.209
14,TTGCGCAA,-0.266
15,TAGGGTCA,-0.179
16,ACATCGAC,-0.0504
17,AATTTACT,-0.0476
18,AGACCGCC,0.364
19,ATCACCAA,-0.0569
20,CCCGGACG,0.196
21,ATCCCACC,0.225
22,CGCATTTA,0.265

# — the supplement of paper PMC3334620
